Measured values from PubChem BioAssay AID1159614 (National Center for Advancing Translational Sciences (NCATS), 2016).
The campaign covered roughly 45,000 compounds. About 65 (0.1%) were called active. Calls come from the whole dose curve; as a rule, active = well fitted activation curve with a large enough effect; inconclusive = small, poorly fitted or top-dose-only effect; inactive = no such curve, though single readings can be large or run the other way. The list shows a part of the results.

Target: Galactocerebrosidase (Homo sapiens) (UniProt P54803)
UniProt P54803, sequence (P54803 whole entry, looked up): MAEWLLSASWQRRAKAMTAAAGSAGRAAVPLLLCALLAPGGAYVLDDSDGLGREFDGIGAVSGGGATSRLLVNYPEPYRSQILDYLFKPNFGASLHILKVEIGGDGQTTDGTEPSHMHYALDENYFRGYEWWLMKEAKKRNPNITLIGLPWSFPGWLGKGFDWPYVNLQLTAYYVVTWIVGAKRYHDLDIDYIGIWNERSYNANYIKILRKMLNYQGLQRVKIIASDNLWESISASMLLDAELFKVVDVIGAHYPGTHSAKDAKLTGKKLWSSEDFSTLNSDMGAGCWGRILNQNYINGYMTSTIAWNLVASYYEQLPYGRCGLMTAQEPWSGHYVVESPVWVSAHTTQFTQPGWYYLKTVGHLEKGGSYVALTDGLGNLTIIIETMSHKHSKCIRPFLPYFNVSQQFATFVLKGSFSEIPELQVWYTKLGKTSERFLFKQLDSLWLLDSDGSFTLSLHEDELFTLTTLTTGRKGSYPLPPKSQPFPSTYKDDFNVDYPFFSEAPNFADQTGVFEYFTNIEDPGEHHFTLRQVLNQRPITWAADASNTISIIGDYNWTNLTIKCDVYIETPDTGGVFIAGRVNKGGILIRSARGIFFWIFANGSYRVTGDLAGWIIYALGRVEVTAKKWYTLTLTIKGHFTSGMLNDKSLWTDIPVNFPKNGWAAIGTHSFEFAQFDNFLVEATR
Experiment: A Novel Cell-Based Assay to Identify Small Molecules for B -Galactocerebrosidase; note: 0% is about no effect; nearly all actives have a fitted effect of over 65% in size
Conditions: 145M-Twi-hGALC-G270D cells (Twitcher mouse brain line with human GALC G270D), HMU-beta-Gal fluorescence, 48 h; series mostly up to 57.5 µM; activation: at the top concentration
Excerpt: Lysosomal storage diseases (LSDs) are caused by genetic mutations in genes encoding proteins important for normal lysosomal function. Globoid cell leukodystrophy (GLD), mostly known as Krabbe disease, is a prototype of the neurological LSDs caused by deficiency of beta-galactocerebrosidase (GALC). In brain specimens of GLD patients, psychosine levels are substantially elevated. At elevated concentrations, psychosine becomes cytotoxic to neuronal cells, particularly to oligodendrocytes (OLG), neural cells responsible for myelin formation. Therefore, the biochemical disturbances in GLD are manifested by different degrees of brain demyelination resulting in a broad spectrum of neurological manifestations. Most of the FDA-approved therapies are based on enzyme replacement therapeutic (ERT) agents, which treat non-neurological symptoms of Gaucher disease, Fabry disease, few mucopolysaccharidoses and Pompe disease. Unfortunately, in GLD, a primarily neurological LSD, ERT agents, as large molecular weight molecules unable to cross the blood-brain barrier, which makes this an inefficacious therapeutic approach. In GLD, increasing the residual GALC activity just above the critical threshold (~10% of wild type enzymatic activity), the cytotoxic levels of psychosine will be reduced, avoiding the OLGs apoptosis and the subsequent demyelination process. This will translate in disease stabilization and amelioration of GLD patient symptoms.
A cell-based assay in 1,536-well plate format was developed to implement a quantitative high-throughput screening (qHTS) assay using GLD-disease relevant cells to identify small molecules that produce enhancements of the residual enzymatic activity levels of mutants GALC found and prevalent in GLD patients. Compounds that are active may therefore have some therapeutic application for GLD. After the treatment of live cells for a determined period, using a fluorescent GALC specific substrate, the mutant residual GALC activity is measured. This cell-based qTHS assay was used to screen part of the MLPCN library for small molecule able to increase the mutant GALC enzymatic activity. In this assay, increased fluorescent signal corresponds to enhanced levels of mutant GALC residual enzymatic activity. Activation is the desired outcome for this assay.
NIH Chemical Genomics Center [NCGC]
NIH Molecular Libraries Probe Centers Network [MLPCN]
Assay Submitter (PI): Gustavo Maegawa MD,PhD, University of Florida, Gainesville, FL
2)#Two cell lines were established for the assay: 145M-Twi-hGALC-G270D (brain-derived Twitcher cell line stably expressing human GALC-G270D) and 145M-Twi-hGALC-WT (same 145M-Twi stably expressing human GALC wild type). The Twitcher is the murine C57B/6 model for GLD with naturally occurring homozygous nonsense GALC mutation. The 145M-Twi cell line was established at Maegawa lab (Ribbens J et al 2014).
a.#Media: DMEM/F12 (1:1) with 10% fetal bovine-serum (FBS) with penicillin/streptomycin (PS-1X - 100 I.U./mL of penicillin+100 ug/mL of streptomycin).
b.#The 6-Hexadecanoylamino-4-methylumbelliferyl-b-D-galactoside (HMU-B-gal) substrate was prepared as per Wiederschain et al 1992. Using 20-mL borosilicate tubes, 2.20 mg of HMU-b-Gal was added in each tube to prepare substrate-film with a final air-nitrogen stream evaporation to remove all diluent solvents.
c.#The HMUb-Gal substrate buffer consists of 0.2 M Na2HPO4 (sodium phosphate dibasic)/ 0.1 M Citric Acid with the pH adjusted to 5.2 using HCl. Sodium Azide at 0.02% and Sodium Taurocholate (NaTC) at 1 mg/mL were added to this substrate buffer.
d.#The HMU-b-Gal stopping buffer consist of 0.5 M NaHCO3 (sodium bicarbonate) /0.5 M Na2CO3 (sodium carbonate). […] Triton X-100 at 0.25% was added.
4)#Preparation of HMU-b-Gal substrate tubes
Adding 18.6 mL of the HMUb-Gal substrate buffer to each 20-mL tube (2.20 mg of HMU-b-Gal) will reach a concentration of 0.2 mM. Vortex well the tube until the solution is fully homogenized (clear cloudy solution). […]

activation, inactive:
COc1ccc(N2CCN(C(c3ccccc3)c3nnc(-c4ccccc4Cl)o3)CC2)cc1 (stereo unspecified) -20.2%
COCCNC(=O)CCCn1c(SCC(=O)Nc2cccc(C)c2)nc2c(sc3ccccc32)c1=O -14.4%
COc1cccc(CNC(=O)Cn2ncc3c4ccccc4n(C)c3c2=O)c1 -7.51%
CC1=C(C(=O)NCCc2ccc(Cl)cc2)C2(CCCCC2)OC1=O -12.8%
CCOc1ccc(N2CC(c3nc4ccccc4n3CC(C)C)CC2=O)cc1 (stereo unspecified) -13.1%
COc1cccc(CNC(=O)c2c(O)nc3ccccn3c2=O)c1 -3.5%
COc1cc(NC(=O)CCNS(=O)(=O)c2ccc3c(c2)CCN3C(=O)C2CC2)cc(OC)c1 -6.98%
CC(C)NC[C@@H](O)COc1cccc2ccccc12 -11.7%
Cc1ccc(C)c(N2CCN(C(=O)c3ccc4c(Cl)c5c(nc4c3)CCCC5)CC2)c1 -9.82%
COc1cc(-c2noc(-c3ccc(NCCc4ccccc4)c([N+](=O)[O-])c3)n2)cc(OC)c1OC -14%
COc1cccc(-c2nc(SCc3cc(=O)c4cc(Cl)ccc4[nH]3)n[nH]2)c1 -7.18%
O=C(NCCc1ccc(Cl)cc1)c1ccc2nc(Cc3ccccc3)oc2c1 -8.12%
Cc1cc(C)c(NC(=O)CSc2nc(=O)n(Cc3ccco3)c3c2CCC3)c(C)c1 -8.48%
CC(C)Cn1c(=O)c2sccc2n2c(CCCC(=O)Nc3ccc(Cl)cc3)nnc12 -11.5%
CS(=O)(=O)c1ncc(N(Cc2ccccc2)Cc2ccco2)c(C(=O)Nc2cccc(C(F)(F)F)c2)n1 -7.18%
O=C(Cc1ccc(Cl)cc1)Nc1ccc2oc(-c3ccccc3)nc2c1 -8.33%
CCN(CC)C(=O)c1sc2c(c1C)c(=O)n(-c1ccc(C)c(C)c1)c(=O)n2CC(=O)Nc1ccc(F)cc1 -8.23%
Cc1ccc(Cl)cc1NC(=O)NC1COc2ccccc2C1 (stereo unspecified) -13.4%
Cc1ccc2c(c1)c(=O)c(S(=O)(=O)c1ccc(F)cc1)cn2CC(=O)Nc1ccc2c(c1)OCO2 -0.93%
CC(C)Oc1ccc(CNC(=O)Cc2ccc(NC(=O)N3CCSc4ncccc43)cc2)cc1 -14.5%
CC(C)(C)C1CCc2c(sc(NC(=O)c3ccccc3F)c2C(=O)N2CCCCC2)C1 (stereo unspecified) -13.1%
CCc1ccc(CN(Cc2ccco2)C(=O)c2cc(-c3ccc(Cl)cc3)on2)cc1 -19.3%
CCOc1ccc(-c2nonc2NC(=O)c2ccccc2C)cc1 -5.1%
Cc1cc2c(cc1S(=O)(=O)Nc1cccc(C(F)(F)F)c1)OCCN2C -13%
COc1ccc2c(Sc3ccccc3)c(C(=O)NCCN(C)C)[nH]c2c1 -18.1%
Cn1c(=O)oc2cc(S(=O)(=O)NCCC(=O)Nc3ccc(F)c(Cl)c3)ccc21 -21.9%
CC(C)CN(CCNC(=O)c1cc(=O)[nH]c2ccc(S(=O)(=O)N3CCCCCC3)cc12)CC(C)C -3.45%
Cc1ccc2[nH]c(CSc3nnc(NC(=O)COc4ccccc4F)s3)cc(=O)c2c1 -20.4%
CCOc1ccc(-c2cc3c(=O)n(CC(=O)Nc4c(C)cccc4C)ccn3n2)cc1 -16.7%
Cc1cccc(Cn2c(CNS(=O)(=O)c3ccc(Cl)s3)nc3cccnc32)c1 3.19%
CCC(Cn1nnc2ccccc2c1=O)NC(=O)Nc1cc(Cl)ccc1OC (stereo unspecified) -9.5%
Cc1ccc(-n2ncc(C(=O)NCc3cccs3)c2C2CCN(C(=O)OC(C)(C)C)CC2)cc1C -6.32%
CN1CCC[C@@H]1c1cccnc1 2.18%
Cc1cccc(C2N3CC4(C(C)C)CN2CC(C(C)C)(C3)C4=O)c1 (stereo unspecified) -16.4%
CCOc1ccc(NC(=O)CCCN2C(=O)C(c3ccccc3)Oc3cccnc32)cc1 (stereo unspecified) -1.9%
Fc1ccc(-c2csc(-c3nc(-c4ccc(Br)s4)cs3)n2)cc1 -8.25%
CC1CCCCN1C(=O)CSc1nnc(-c2cccc(Cl)c2)o1 (stereo unspecified) -5.83%
CC(=O)N1CCCc2cc(S(=O)(=O)N(C)CC(=O)Nc3ccc(F)c(Cl)c3)ccc21 -13.5%
Cc1ccc(Cl)cc1NC(=O)/C(C#N)=C/c1c(C)n(Cc2ccccc2)c2ccccc12 -15.9%
O=C(CS(=O)Cc1ccco1)NC/C=C\COc1cc(CN2CCCCC2)ccn1 (stereo unspecified) -3.62%
Cc1csc2nc(-c3cccc(NC(=O)c4cccc(F)c4)c3)cn12 -29%
COc1ccc(C)cc1N(C)C(=O)c1sc2nc3n(c(=O)c2c1C)CCCCC3 -5.33%
Cc1cccc(-c2noc(CN(C(=O)c3ccc(C)c(C)c3)C(C)C)n2)c1 -40%
Cc1ccc(NC(=O)c2ncn(-c3ccccc3)n2)c(Cl)c1 -16.4%
CCN(CC)c1ccc2cc(-c3nnc(-c4cccc(Cl)c4)o3)c(=O)oc2c1 -8.49%
Cc1ccc(NC(=O)c2ccc3nc(Cc4ccccc4)oc3c2)cc1F -10.5%
CCCCN(C)CCNC(=O)Cn1ncc2c3ccccc3n(CCC)c2c1=O 10.5%
COc1cccc(NC(=O)CSc2nc(-c3ccccc3)nc3c2Cc2cc(Cl)ccc2O3)c1 -17%
Cc1ccc(C(=O)c2oc3ccccc3c2NC(=O)c2nc(S(C)(=O)=O)ncc2Cl)cc1F -16.2%
CCOc1ccc(CCNC(=O)C2=C(C)C(=O)OC23CCC(C)CC3)cc1OCC (stereo unspecified) -15.2%
CCCCCn1c(=O)[nH]c2cc(C(=O)NCc3ccc(C)cc3)ccc2c1=O -11.8%
CCCOc1ccc(OC(=O)c2sc3ncn(Cc4cccc(F)c4)c(=O)c3c2C)cc1 -9.68%
O=C(c1nc(-c2ccc(Cl)cc2)n2c1CCCCC2)N1CCN(c2ccc(F)cc2)CC1 -17.6%
COc1ccccc1NC(=O)N(Cc1ccco1)C1CCN(C(C)=O)CC1 4.81%
O=S(=O)(c1ccccc1)c1nc(-c2ccc(F)cc2)oc1N1CCOCC1 -6.89%
CCOc1cc(C#N)c(NC(=O)c2ccc(OC)c(S(=O)(=O)N3CCCC3)c2)cc1OCC -11.7%
Cc1nc2cc(-c3cccc(F)c3)nn2c(C)c1CCC(=O)N1CCN(c2ccc(F)cc2)CC1 -30.7%
O=C(NCC1(c2ccccc2)CCCC1)C(=O)Nc1cccc(C(F)(F)F)c1 7.76%
CCOc1ccc(CCNC(=O)CSc2cc(=O)n(C)c3ccccc23)cc1OCC -11%
COc1ccc(-c2cc(C(=O)N3CCN(c4ccccc4OC)CC3)c3cc(C(C)C)ccc3n2)cc1 -15.5%
Cc1ccc(Cl)cc1N1CCN(C(c2ccc(F)cc2)c2nnc(-c3ccccc3)o2)CC1 (stereo unspecified) -16.8%
